Experimental data from the supplement of paper PMC12355420.
Counter-ions that a name gives are not always drawn. The list shows a part of the results. Cut-off read from the data, not from the text of the source: active = 0.5 or less and inactive = the rest. Repeats are few or missing, and single values can be far off.

Tests used:
Conditions in all cases: 50 µM; 24 h
[1] = system: HeLa VPS33A reporter cells; experiment: relative cell viability (CellMask signal) vs DMSO (fraction of DMSO); higher = less cytotoxic;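 note: primary screen of an FDA-approved drug library in HeLa reporter cells in 96-well format, CellMask signal normalized to DMSO-treated wells set as 1, under 0.5 deemed highly cytotoxic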
[2] = system: HeLa VPS33A R498W KI + HA-SDC1-FLAG; experiment: relative GAG core protein HA-SDC1 amount per cell number vs DMSO (fraction of DMSO); higher = more SDC1 (GAG core protein);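 note: HA-SDC1 level read out by In-Cell Western staining with an anti-HA antibody against the N-terminal tag, screening FDA-approved library drugs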
[3] = system: HeLa VPS33A KO + NLuc-VPS33A R498W; experiment: relative mutant VPS33A R498W amount (NanoLuc luminescence) vs DMSO (fraction of DMSO); HeLa model of a glycosaminoglycan (GAG) storage disease; KI is knock-in and KO knock-out; SDC1 is syndecan 1; higher = higher mutant VPS33A level;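 note: screen of an FDA-approved drug library, NanoLuc luminescence read after lysing the treated cells, taken as a measure of mutant VPS33A protein stability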

SMILES	relative cell viability [1]	relative GAG core protein HA-SDC1 amount per cell number [2]	relative mutant VPS33A R498W amount [3]
CC[C@H]1OC(=O)C[C@@H](O)[C@H](C)[C@@H](O[C@@H]2O[C@H](C)[C@@H](O[C@H]3C[C@@](C)(O)[C@@H](O)[C@H](C)O3)[C@H](N(C)C)[C@H]2O)[C@@H](CC=O)C[C@@H](C)C(=O)/C=C/C(C)=C/[C@@H]1CO[C@@H]1O[C@H](C)[C@@H](O)[C@@H](OC)[C@H]1OC [Tylosin tartrate]	0.943	inactive: 0.856	1.2
CC1(C)S[C@@H]2[C@H](NC(=O)[C@H](N)c3ccc(O)cc3)C(=O)N2[C@H]1C(=O)O [Amoxicillin]	1.03	inactive: 1.16	1.13
N[C@@H](C(=O)N[C@@H]1C(=O)N2C(C(=O)O)=C(Cl)CS[C@H]12)c1ccccc1 [Cefaclor]	0.878	inactive: 1.81	1.22
C[C@@H](c1nc(-c2ccc(C#N)cc2)cs1)[C@](O)(Cn1cncn1)c1cc(F)ccc1F [Isavuconazole]	1.08	inactive: 0.6	0.761
CC(C)c1c(C(=O)Nc2ccccc2)c(-c2ccccc2)c(-c2ccc(F)cc2)n1CC[C@@H](O)C[C@@H](O)CC(=O)O [Atorvastatin Calcium]	0.562	inactive: 0.511	1.58
CCOC(=O)c1ccc(C#Cc2ccc3c(c2)C(C)(C)CCS3)nc1 [Tazarotene]	0.676	inactive: 0.579	0.579
CC(=O)Oc1cccc2c1C(=O)c1c(OC(C)=O)cc(C(=O)O)cc1C2=O [Diacerein]	0.931	inactive: 0.712	1.18
Nc1nc2[nH]cc(CCc3ccc(C(=O)N[C@@H](CCC(=O)O)C(=O)O)cc3)c2c(=O)[nH]1 [Pemetrexed disodium hemipenta hydrate]	1.08	inactive: 1.7	1.06
O=C1NC(=O)[C@@H](c2cn3c4c(cccc24)CCC3)[C@@H]1c1c[nH]c2ccccc12 [Tivantinib (ARQ 197)]	0.93	active: 0.335	0.847
O=[N+]([O-])c1ccc(O)c2ncccc12 [Nitroxoline]	1.07	inactive: 0.548	5.76
CCCC(CCC)C(=O)O [Valproic acid]	1.3	inactive: 1.06	1.11
OC(CCCN1CCCCC1)(c1ccccc1)c1ccccc1 [Diphenidol HCl]	1.03	inactive: 0.736	0.807
O=c1c(O)c(-c2ccc(O)c(O)c2)oc2cc(O)cc(O)c12 [Quercetin dihydrate]	1.03	inactive: 1.12	0.36
